This is an account of results in PubChem BioAssay AID1159614 (National Center for Advancing Translational Sciences (NCATS), 2016).

Out of some 45,000 compounds screened, about 65 (0.1%) were called active. The call rests on the fitted dose curve; in most records, active means well fitted activation curve with a large enough effect; inconclusive means small, poorly fitted or top-dose-only effect; inactive means no such curve, though single readings can be large or run the other way. The list shows a part of the results.

Chain of UniProt P54803 (P54803 whole entry, looked up): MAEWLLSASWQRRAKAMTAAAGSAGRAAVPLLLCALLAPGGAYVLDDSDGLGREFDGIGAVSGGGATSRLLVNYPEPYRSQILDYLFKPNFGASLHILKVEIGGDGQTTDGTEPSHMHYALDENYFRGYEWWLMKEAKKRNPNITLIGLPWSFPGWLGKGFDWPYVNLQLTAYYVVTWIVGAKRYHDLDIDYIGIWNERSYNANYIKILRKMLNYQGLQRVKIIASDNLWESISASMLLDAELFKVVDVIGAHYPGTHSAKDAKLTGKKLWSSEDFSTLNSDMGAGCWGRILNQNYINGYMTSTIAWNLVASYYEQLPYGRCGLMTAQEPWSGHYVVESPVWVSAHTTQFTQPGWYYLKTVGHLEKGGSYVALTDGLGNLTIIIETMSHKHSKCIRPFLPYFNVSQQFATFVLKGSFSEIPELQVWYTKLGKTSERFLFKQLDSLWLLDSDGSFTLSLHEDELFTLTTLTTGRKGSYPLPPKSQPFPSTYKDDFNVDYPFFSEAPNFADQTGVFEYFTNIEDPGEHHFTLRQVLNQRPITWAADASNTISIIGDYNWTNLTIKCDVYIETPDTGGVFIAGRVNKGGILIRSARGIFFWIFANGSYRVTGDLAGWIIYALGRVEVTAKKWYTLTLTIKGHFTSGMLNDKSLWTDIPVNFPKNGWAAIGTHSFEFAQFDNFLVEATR

For this test, the target named is Galactocerebrosidase (Homo sapiens) (UniProt P54803). Description: A Novel Cell-Based Assay to Identify Small Molecules for B -Galactocerebrosidase. Further: 0% is about no effect; nearly all actives have a fitted effect of over 65% in size. To be noted: 145M-Twi-hGALC-G270D cells (Twitcher mouse brain line with human GALC G270D), HMU-beta-Gal fluorescence, 48 h; series mostly up to 57.5 µM; activation: at the top concentration. Summed up:
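Mutant human GALC (G270D), stably expressed in a Twitcher mouse brain cell line lacking endogenous GALC, is measured in live-treated cells via 6-hexadecanoylamino-4-methylumbelliferyl-β-galactoside hydrolysis (0.1 mM final, pH 5.2) with fluorescent detection.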
Consider `CCOCC(O)COc1ccc(NC(=O)CC[S+](C)C)cc1` (centres undefined), for which the “activation” value was inactive: -3.76%.

Consider `Cn1c(=O)n(CCCc2ccccc2)c(=O)c2c1nc1n2CCN1c1ccc(F)cc1`, for which the “activation” value is inactive: -0.554%.

In the case of `CCOC(=O)c1cc2c(=O)n3ccccc3nc2n(Cc2ccco2)c1=NC(=O)c1ccc(OCC)cc1`, the “activation” value was inactive: -7.52%.

For `COc1cc(OC)c(N(C)C(=O)c2sc3nc4n(c(=O)c3c2C)CCCC4)cc1Cl`, the “activation” value was inactive: -19.2%.

As for `Cc1nn(C(=O)c2ccc(Br)cc2)c(C)c1Sc1ccccc1`, the “activation” value is inactive: -1.73%.

In the case of `CCCCOC(=O)c1ccc(NC(=O)c2cnc3ccc(C)cn3c2=O)cc1`, the “activation” value is inactive: -11.5%.

`CCn1c(=O)cc(OCC(=O)N2CCN(c3ccc(F)cc3)CC2)c2ccccc21`: the “activation” value is inactive: -0.144%.

Turning to `CCN(c1cccc(C)c1)c1ncnc2c1cnn2-c1cccc(Cl)c1`, the “activation” value was inactive: -14.2%.

With `Cc1ccc(NC(=O)Cn2c(=O)n(Cc3nc(-c4ccccc4)no3)c(=O)c3cc4c(cc32)OCO4)c(C)c1`, the “activation” value was inactive: -12.6%.

For `CCN1/C(=C/C=C/c2sc3ccccc3[n+]2CC)Sc2ccccc21`, the “activation” value was inactive: -13.7% [at 23.8 µM].

Turning to `COc1ccc(Nc2c(-c3ccccn3)nc3ccc(Cl)cn23)cc1`, the “activation” value is inactive: -25.9%.

Regarding `COc1cccc(Nc2nc3ccc(C)cc3nc2-n2nc(C)cc2C)c1`, the “activation” value is inactive: -6.29%.

`CCc1ccc(-n2c(=O)c3cccnc3n2CC(=O)NCc2ccc(C)cc2)cc1`: the “activation” value was inactive: -32.2%.

Take `Cc1ccc(NC(=O)C2=CC(c3ccc4c(c3)OCO4)=NS(=O)(=O)N2C)cc1`: the “activation” value was inactive: -15.8%.

As for `COc1ccc(Cl)cc1NC(=O)CSC1=Nc2ccccc2C2=NC(CC(=O)NCc3cccs3)C(=O)N12` (centres undefined), the “activation” value is inactive: -21.6%.

In the case of `COc1ccc(CCNC(=O)CSc2n[nH]c(-c3ccccc3Cl)n2)cc1OC`, the “activation” value is inactive: -6.86%.

Regarding `O=C(NCc1ccccc1)c1cnc(N2CCCCC2)c2ccccc12`, the “activation” value was inactive: -2.33%.

Take `COc1ccc2c(c1)c1c(c(=O)n(-c3ccccc3C)c(=O)n1Cc1c(F)cccc1Cl)n2C`: the “activation” value was inactive: -13.9%.

Regarding `CCCCN(C)C(=O)Cn1c(SCC(=O)Nc2ccc(C)c(C)c2)nc2ccccc21`, the “activation” value was inactive: -7.58%.

As to `CCOC(=O)C1(C)C=C(Nc2ccc(C(=O)O)cc2)C(=O)N1c1ccc(C(=O)O)cc1` (centres undefined), the “activation” value was inactive: -16.4%.

For `Cc1nc2ccccc2n1CCc1nc2c3ccccc3nc(SCc3ccc(F)cc3)n2n1`, the “activation” value was inactive: 0.755%.

Regarding `CCOC(=O)c1c(C)oc2nc(C)nc(NCC3CCN(Cc4cccc(Cl)c4)CC3)c12`, the “activation” value was inactive: 2.18%.

In the case of `COc1ccccc1N1CCN(CC(O)COc2ccc(C)cc2C(C)(C)C)CC1` (centres undefined), the “activation” value is inactive: -28.8%.

On to `Cc1ccc(C)c(N2CCN(CCCNC(=O)Nc3ccc(Cl)cc3)CC2)c1`, for which the “activation” value was inactive: -18.5%.

For the compound `Cc1cccc(NC(=O)C2CCCN(c3nc4ccccc4s3)C2)c1C` (centres undefined), the “activation” value was inactive: -11.9%.

Regarding `CCOC(=O)C1CCCN(C(=O)Cn2nc(CC)n3c(cc4occc43)c2=O)C1` (centres undefined), the “activation” value is inactive: -12.8%.

On to `CC(=O)c1ccc(N2C(=O)N(Cc3cc(C)ccc3C)c3ccccc3S2(=O)=O)cc1`, for which the “activation” value was inactive: -9.08%.

Regarding `O=S(=O)(Nc1ccc(Cl)cc1)c1cccc(S(=O)(=O)c2ccc(Cl)c(Cl)c2)c1`, the “activation” value was inactive: -11.1%.

As to `Cc1cc(Nc2ccc(F)cc2)nc(-n2nc(C)cc2C)n1`, the “activation” value was inactive: -3.06%.

`Cc1ccc(CCNC(=O)c2ccc(CS(=O)(=O)Cc3ccccc3F)o2)cc1`: the “activation” value is inactive: 3.59%.

Take `CCOc1ccccc1NC(=O)CN1C=NS(=O)(=O)c2ccccc21`: the “activation” value was inactive: -16%.

As to `Cc1ccc(NC(=O)CCNS(=O)(=O)c2ccc3c(c2)CCCC(=O)N3)cc1`, the “activation” value is inactive: -11.7%.

Take `Cc1ccc(C(=O)Nc2ccc3nc(N4CCCCC4)cc(C)c3c2)cc1F`: the “activation” value is inactive: -17.2%.

In the case of `COc1cccc2cc(-c3nc(-c4ccc(C)cc4)c(C)s3)c(=O)oc12`, the “activation” value was inactive: -16.8%.

With `COc1ccc(NC(=O)Cn2c(=O)n(-c3ccc(C)c(C)c3)c(=O)c3c(C)c(C)sc32)cc1`, the “activation” value was inactive: -9.21%.

As to `COc1cccc(N2CC(NC(=O)C3CC3)CC2=O)c1` (centres undefined), the “activation” value is inactive: -14.9%.

Regarding `CCOc1ccccc1O[C@H](c1ccccc1)[C@H]1CNCCO1`, the “activation” value is inactive: -11.5%.

For the compound `CCc1cccc(C)c1NC(=O)CCn1nc(C)c2c(C)n(-c3ccccc3)nc2c1=O`, the “activation” value is inactive: -19.8%.

`CC1=C(C(=O)Nc2cccc(C(F)(F)F)c2)C(c2ccccc2)n2ncnc2N1` (centres undefined): the “activation” value is inactive: -0.937%.

Regarding `COc1ccc(NC(=O)Cc2noc3ccc(C)cc23)cc1Cl`, the “activation” value was inactive: -0.621%.

Turning to `CCC(C)NC(=O)Cn1c(=O)ccc2cc(S(=O)(=O)N3CCCC3)ccc21` (centres undefined), the “activation” value is inactive: -12.2%.

Consider `CCCN(C(=O)c1cc2c(=O)oc3ccccc3c2s1)c1ccccc1C`, for which the “activation” value is inactive: -17.4%.

`CCOC(=O)c1c(S(=O)(=O)N2CCC(C(=O)Nc3cccc(C)n3)CC2)c(C)n(C)c1C`: the “activation” value is inactive: -13%.

Regarding `COCC(=O)N1c2nc(-c3ccco3)nn2C2(CCCCC2)[C@@H]2CCCC[C@@H]21`, the “activation” value is inactive: -9.4%.

`CCc1ccc2c(c1)c(=O)c(S(=O)(=O)c1ccccc1)cn2CC(=O)Nc1ccc(OC)cc1`: the “activation” value was inactive: -9.33%.

As for `Cc1ccc(NC(=O)Cn2nnc(C(=O)NCCc3ccccc3)c2N)cc1Cl`, the “activation” value was inactive: -5.99%.

Turning to `Cc1ccc(CCNC(=O)c2ccc(NC(=O)N3CCSc4ccccc43)cc2)cc1`, the “activation” value was inactive: -8.79%.

Take `CCOc1ccc2c(c1)c(=O)c(C(=O)c1ccc(CC)cc1)cn2CC(=O)Nc1ccccc1C`: the “activation” value was inactive: -10.5%.

In the case of `Cc1ccc(C)c(N2CCN(c3nc4c(S(=O)(=O)c5ccccc5)nnn4c4ccc(Cl)cc34)CC2)c1`, the “activation” value is inactive: -15.5%.
